In all, about 76,000 compounds went through this assay and about 1,900 (2.5%) were called active. Inconclusive means that the source gave no clear call. Such entries were picked first, then a sample of the others. Calls follow the shape of the dose curve; as a rule, active = well fitted inhibition curve with a large enough effect; inconclusive = small, poorly fitted or top-dose-only effect; inactive = flat fitted curve, though single readings scatter. Potencies of inconclusive entries are doubtful fits and often do not repeat.
The compounds below were run against Luciferin 4-monooxygenase (Photinus pyralis) (UniProt P08659) (assay: Firefly luciferase inhibition profiling of diverse chemical library using quantitative high-throughput screening). Settings: purified P. pyralis luciferase, luminescence, biochemical; series mostly up to 115 µM.
Sequence of UniProt P08659 (P08659 whole entry, looked up): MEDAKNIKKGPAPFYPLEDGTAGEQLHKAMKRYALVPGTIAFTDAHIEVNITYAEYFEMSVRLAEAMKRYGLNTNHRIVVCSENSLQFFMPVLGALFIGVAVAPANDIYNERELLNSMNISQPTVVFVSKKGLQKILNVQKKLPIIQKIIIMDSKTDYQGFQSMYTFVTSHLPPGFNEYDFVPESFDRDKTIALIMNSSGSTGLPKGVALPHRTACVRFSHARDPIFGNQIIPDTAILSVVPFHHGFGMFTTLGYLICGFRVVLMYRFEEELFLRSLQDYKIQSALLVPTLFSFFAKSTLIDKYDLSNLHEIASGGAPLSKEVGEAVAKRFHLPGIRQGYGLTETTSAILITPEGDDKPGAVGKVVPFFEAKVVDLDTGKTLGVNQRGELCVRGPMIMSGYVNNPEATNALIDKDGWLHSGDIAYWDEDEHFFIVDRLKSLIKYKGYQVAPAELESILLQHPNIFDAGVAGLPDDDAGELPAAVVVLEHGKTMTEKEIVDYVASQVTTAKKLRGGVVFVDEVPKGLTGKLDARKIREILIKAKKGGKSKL
Procedure, shortened: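 Purified P. pyralis luciferase (10nM final) in 50mM Tris acetate pH 7.5, 10mM Mg acetate, 0.01% Tween-20, 0.05% BSA with 10uM D-luciferin and 10uM ATP. Compounds titrated qHTS. Luminescence imaged on CCD.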
`CCOc1ccccc1C(=O)N1CCC[C@H]1c1nc(-c2ccc(OC)cc2)no1` was tested, and the Potency was inconclusive: 50.1 µM [inhibitor, partial curve]. `Cc1ccccc1C(=O)NCc1ccnc2[nH]ccc12` was tested, and the Potency was inconclusive: 100 µM [inhibitor, partial curve, poor fit]. `CCCN1CCc2[nH]cnc2C12CCN(Cc1ccc(C3CCCCO3)o1)CC2` (stereo unspecified) was tested, and the Potency was “inactive”. With `COCCNC(=O)N1CCCC(c2noc(COc3ccccc3)n2)C1` (stereo unspecified) the Potency was “inactive”. `CCOc1cccc(CNC(=O)c2noc(-c3ccc4c(c3)OCO4)n2)c1` was tested, and the Potency was inconclusive: 20 µM [inhibitor, full curve]. With `O=C(Nc1ccc2c(c1)OCCO2)N1CCCCC1c1nc(CCOCC2CC2)no1` (stereo unspecified) the Potency was inconclusive: 44.7 µM [inhibitor, partial curve]. `COCCNc1ncc(-c2ccc(N3CCOCC3)cc2)c2c1OCC2` was tested, and the Potency was inconclusive: 63.1 µM [inhibitor, partial curve]. `Cc1cnc(CCNC(=O)Cn2c(=O)oc3ccccc32)n1C1CC1` was tested, and the Potency was “inactive”. For `CN1CCOc2c(C(=O)NCCc3cnc[nH]3)cc(-c3ccc(N4CCOCC4)cc3)cc21`, the Potency was inconclusive: 50.1 µM [inhibitor, partial curve]. For `COCCOC1CCN(C(=O)c2ccc(Cc3c(C)noc3C)o2)CC1`, the Potency was “inactive”. For `CC(C)c1nc2nccc(-c3ccc4c(c3)OCCCO4)n2n1`, the Potency was inconclusive: 56.2 µM [inhibitor, partial curve, poor fit]. `COc1ccc(C(=O)N2CCCN(C)c3ccccc32)cc1` was tested, and the Potency was inconclusive: 44.7 µM [inhibitor, partial curve]. For `c1coc(-c2nc3ccncc3[nH]2)c1`, the Potency was inconclusive: 112 µM [inhibitor, partial curve]. `Cc1cc(F)ccc1NC(=O)C1CCN(C(=O)c2ncn3c2COC(c2ccc(F)cc2)C3)CC1` (stereo unspecified) was tested, and the Potency was inconclusive: 39.8 µM [inhibitor, partial curve]. In the case of `O=C(c1ccoc1)N1CC(Oc2cccc(-c3nc(-c4ccccc4)no3)c2)C1`, the Potency is reported as inconclusive: 17.8 µM [inhibitor, full curve]. In the case of `CN1C(=O)Cc2ccccc2C1C(=O)N1CCN(c2ccc(F)cc2)CC1` (stereo unspecified), the Potency is reported as “inactive”. `Cc1cc(C)c(CNC(=O)c2nc(-c3ccc(CN(C)C)cc3)cc3[nH]ccc23)c(=O)[nH]1` was tested, and the Potency was inconclusive: 79.4 µM [inhibitor, partial curve]. `CC(C)C(O)C1CCN(c2nccc(-c3cc(C(=O)O)ccn3)n2)CC1` (stereo unspecified) was tested, and the Potency was active: 50.1 µM. In the case of `Cc1cc(C(=O)N2CC(c3nnc(-c4ccncc4)o3)C3(CCOCC3)C2)n(C)n1` (stereo unspecified), the Potency is reported as “inactive”. With `Cc1ccc2nc(CO[C@H]3CN(Cc4ccccc4)C[C@H]3F)[nH]c2c1` the Potency was “inactive”. With `CC(C)CN(Cc1cnn(C)c1)C(=O)c1cccc(OCC(N)=O)c1` the Potency was “inactive”. In the case of `CN(C)c1ccc2ncc(Nc3ccccc3F)n2n1`, the Potency is reported as inconclusive: 100 µM [inhibitor, partial curve, poor fit]. In the case of `c1ccc(-c2noc(-c3nc(-c4ccncc4)no3)n2)cc1`, the Potency is reported as inconclusive: 2.24 µM [inhibitor, full curve]. With `COc1ccc(C(=O)NCCn2ccn3nc(-c4ccc(C)c(C)c4)cc3c2=O)cc1` the Potency was inconclusive: 1 µM [inhibitor, full curve]. With `Cc1ccc(SCCNC(=O)C2CCC(=O)N(C3CCCC3)C2)cc1` (stereo unspecified) the Potency was “inactive”. With `COCCN1C(=O)[C@@H]2C[C@@H](CN2C(=O)c2ccccn2)Oc2ccccc21` the Potency was “inactive”. With `CCC(=O)N1CCc2sc(C(=O)NC3CCCCCC3)cc2C1` the Potency was inconclusive: 50.1 µM [inhibitor, partial curve]. For `O=C(N[C@H]1CCN2C(=O)c3ccccc3NC(=O)[C@H]12)c1cccc(F)c1`, the Potency was “inactive”. In the case of `Cn1c(CO[C@H]2CN(C(=O)Nc3ccccc3)C[C@H]2F)nc2ccccc21`, the Potency is reported as “inactive”. `Cn1cccc1C(=O)NC1CCc2nnc(C3CC3)n2CC1` (stereo unspecified) was tested, and the Potency was inconclusive: 50.1 µM [inhibitor, partial curve]. With `Cn1cc(-c2cnc(Nc3cccnc3)c3c2CCO3)cn1` the Potency was inconclusive: 50.1 µM [inhibitor, partial curve]. `COc1ccc2nc([C@H]3CCN(Cc4ccc(F)cc4)C3)[nH]c2c1` was tested, and the Potency was active: 50.1 µM. With `CC(C)CCN1CCOc2cc(C(=O)Nc3nccs3)ccc2C1` the Potency was inconclusive: 79.4 µM [inhibitor, partial curve]. `CCCOc1cc(C)c2c(c1C)C[C@H](C(C)C(=O)N1CCC(O)CC1)CC2` (stereo partly specified) was tested, and the Potency was inconclusive: 56.2 µM [inhibitor, partial curve]. With `CC(C)(C)c1ccnc(N[C@H]2CO[C@H]3[C@@H]2OC[C@@H]3NS(=O)(=O)c2cccs2)n1` the Potency was inconclusive: 70.8 µM [inhibitor, partial curve]. For `COc1ccc(CNC(=O)[C@@H]2Cc3nc[nH]c3CN2Cc2ccc(C(=O)O)cc2)cc1`, the Potency was “inactive”. With `CCCc1noc(-c2nc(-c3ccccc3F)no2)n1` the Potency was active: 5.62 µM. In the case of `O=C(Nc1ccccc1)N1CC(Oc2cccc(-c3nc(-c4ccccc4)no3)c2)C1`, the Potency is reported as inconclusive: 22.4 µM [inhibitor, partial curve]. With `CC1(c2ccccc2)N(Cc2cccnc2)C(=O)OC12CCN(C(=O)COc1ccccc1C(N)=O)CC2` (stereo unspecified) the Potency was “inactive”. `O=C(c1cccc(OC2CN(C3CCN(Cc4ccccc4)CC3)C2)c1)N1CCOCC1` was tested, and the Potency was “inactive”. `Cc1nc2c(NC(=O)Nc3cccc(C(F)(F)F)c3)cccn2n1` was tested, and the Potency was inconclusive: 39.8 µM [inhibitor, partial curve]. For `Cc1ccc(CN2C(=O)[C@@H]3C[C@@H](O)CN3C3(CN(CC4CCCCC4)C3)C2=O)o1`, the Potency was “inactive”. With `O=C(Nc1cccc(-c2nnc3n2CCCC3)c1)c1ccc2c(c1)OCO2` the Potency was inconclusive: 50.1 µM [inhibitor, partial curve]. `CC1CCCCN1CCCNC(=O)c1cc2c(s1)CN(C1CCCC1)C2` (stereo unspecified) was tested, and the Potency was inconclusive: 50.1 µM [inhibitor, partial curve]. In the case of `CC(NC(=O)c1cccc2c1CCN2C(=O)Nc1ccc(F)cc1)c1ccccn1` (stereo unspecified), the Potency is reported as active: 0.794 µM. `CC(=O)NC1(C)CCN(Cc2cnc(-c3ccc4c(ccn4C)c3)s2)CC1` was tested, and the Potency was inconclusive: 28.2 µM [inhibitor, full curve]. For `CNC(=O)C1CCN(C(=O)c2coc(COc3ccc4ccc(OC)cc4c3)n2)C1` (stereo unspecified), the Potency was inconclusive: 50.1 µM [inhibitor, partial curve]. With `O=C(O)CCC(=O)N[C@H]1CCN2C(=O)c3cc(/C=C/c4ccccc4)ccc3NC(=O)[C@H]12` the Potency was inconclusive: 7.94 µM [inhibitor, full curve, poor fit]. `COc1cccc(CNC(=O)N2c3ccccc3CC2c2noc(C3CCOCC3)n2)c1` (stereo unspecified) was tested, and the Potency was active: 5.01 µM. `O=C(Nc1cnc(-c2ccccc2)nc1)c1ccco1` was tested, and the Potency was active: 11.2 µM. For `Cc1cn(CCNC(=O)c2cn(C3CCC(N)CC3)nn2)nn1` (stereo unspecified), the Potency was inconclusive: 79.4 µM [inhibitor, single point]. With `Cc1cnc(CCNC(=O)Nc2ccc3c(c2)OCCO3)n1C1CC1` the Potency was active: 6.31 µM. `CCOc1ccc2c(n1)CCN(C(=O)Nc1ccccc1OCC)C2` was tested, and the Potency was inconclusive: 44.7 µM [inhibitor, partial curve, poor fit]. `CC(=O)c1cccc(C(=O)N2CCC3(CC2)N=C(c2ccc(C)cc2)NO3)c1` was tested, and the Potency was inconclusive: 39.8 µM [inhibitor, partial curve]. With `c1ccc(-n2cc(CN(Cc3ccccn3)CC3CCCO3)nn2)cc1` (stereo unspecified) the Potency was inconclusive: 44.7 µM [inhibitor, partial curve]. `COC(=O)C1=C(C)N(Cc2ccccc2F)C(=O)CC1c1ccc(F)cc1F` (stereo unspecified) was tested, and the Potency was “inactive”. With `CCOC(=O)C1(Cc2ccc(OC)cc2)CCN(C(=O)c2cccc(Cl)c2)CC1` the Potency was inconclusive: 44.7 µM [inhibitor, partial curve]. For `Cc1nn(-c2ccc(C(F)(F)F)cc2)c(C)c1[C@@H]1C=C[C@@H](NC(=O)c2cccs2)C1`, the Potency was inconclusive: 126 µM [inhibitor, single point]. With `c1cc(CNC[C@H]2Cn3cc(-c4ccc5c(c4)OCCCO5)nc3CO2)ccn1` the Potency was active: 44.7 µM. With `OCCOc1ccccc1CN1CCCC(N2CCN(c3ccccc3)CC2)C1` (stereo unspecified) the Potency was “inactive”. `COc1ccc(NC(=O)CN2C(=O)NC3(CCCCC3)C2=O)cc1Cl` was tested, and the Potency was “inactive”. In the case of `O=C(c1ccccc1F)N1CCCn2cc(-c3ccccc3F)nc21`, the Potency is reported as “inactive”. In the case of `O=C(CCc1ccccc1)N1CCCCCC1c1nnc(-c2ccccc2)o1` (stereo unspecified), the Potency is reported as inconclusive: 31.6 µM [inhibitor, partial curve, poor fit]. With `COc1nc2nc(CCc3ccccc3)n(C)c2cc1-c1ccncc1` the Potency was inconclusive: 89.1 µM [inhibitor, partial curve]. With `Cc1nn(-c2cccc(Br)c2)c(C)c1[C@@H]1C=C[C@@H](NS(C)(=O)=O)C1` the Potency was active: 56.2 µM. For `COc1ccc(CNC(=O)c2ccc(-c3ccc(N4CCSCC4)nc3)cc2)cc1OC`, the Potency was inconclusive: 50.1 µM [inhibitor, partial curve]. In the case of `CCc1cccc(NC(=O)Cn2c(-c3cnccn3)nc(C)c(C)c2=O)c1`, the Potency is reported as “inactive”. `C[S+](=O)([O-])CCn1ncc2cc(OCc3cccc(-c4cccnc4)c3)ccc21` was tested, and the Potency was active: 5.01 µM. For `COc1ccccc1CCC(=O)NC1CCN(C(=O)c2cc3c(=O)[nH]c(C)cn3n2)CC1`, the Potency was “inactive”. `O=C(CN1CCOCC1)N1CCNc2cnc(Nc3ccc(-n4ccnc4)cc3)nc2C1` was tested, and the Potency was “inactive”. `O=C(Nc1ccc(F)cc1)c1ccc(CN2C(=O)NC3(CCOCC3)C2=O)cc1` was tested, and the Potency was inconclusive: 39.8 µM [inhibitor, partial curve].

— PubChem BioAssay AID1347043 (National Center for Advancing Translational Sciences (NCATS), 2019)
Also: nearly all actives have a fitted effect of over 65% in size.
Potency is read from the fitted curve at half-maximal effect; tags tell the direction and shape of the fitted curve.
